# The source gives no read counts; variants with many changes may rest on few reads.
# B1: LINE1-mini (parent)
# chain: GGCAGAGCUCAACACAGCGUGGCAAAGUGGCUGUGGCUAGACUGCC
# Variants of: B1
# Assay: self-cleavage, relative activity (ratio to wild type); higher = more cleavage; in vitro, sequencing; the parent is a self-cleaving ribozyme
row,Variant,self-cleavage
1,C18G A26C G33A C46G,0.03
2,C18U U20G G36U A41G G44U,0.01
3,C18G U34G G40C,0.05
4,C18G U34A C37U,0.11
5,C18U U20A G33U G36U A39U,0.01
6,C18G G35C G40A,0.02
7,C18G G22C G36U,0.07
8,C18U G27C U38C C45U,0.08
9,C18G G22A U32G,0.05
10,C18G G29U C37U,0.02
11,C18G U20A A26C U34A A41U C46U,0.01
12,C18G A25G U32C,0.02
13,G19A A24G A25U,1.88
14,C18A G27A G36A C45A,0.05
15,G19A A24C C31U,0.56
16,G19A A25G C31A U32A U34G C42G,0.03
17,C18G G19C C31U G40C,0.01
18,C18U G30A G35A C37G,0.07
19,C18G G22U U38A,0.25
20,C18U G21C G40C,0.04
21,C18U U20G G29U,0.14
22,C18U G27C G33A,0.08
23,C18U A25C A26U,0.01
24,C18A U28G G35U,0.09

row,Variant,self-cleavage
1,C18U C23A G44U,0.02
2,C18U C23G U43C,0.01
3,C18G A24G U32C G40A,0.06
4,C18A U28G C45U,0.06
5,G19A A24G G35C C46U,0.07
6,C18U G21C G27A,0.56
7,C18A U20A A26C U28C U34A,0.03
8,C18U C31A G40U,0.01
9,C18A U20G G22C U34A G35C,0.03
10,C18A U20C A26C C31G G33U G35A U38G,0.01
11,C18U G29C U34G C37A C42U U43A G44U C45G,0.01
12,C18G A26U G36A,0.01
13,C18U G27A G40U C42U,0.05
14,C18G U38G A41G,0
15,C18U G21U A39C C45A,0.06
16,C18U G27U U34G,0.1
17,C18U U34G A41C C46A,0.01
18,C18A U20A U28A C31U A39U U43G,0
19,C18U G35A C42U,0.06
20,C18U G27C G29A C31U,0.02
21,C18G A24G G40C,0.03
22,C18U C31A C45A,0.05
23,C18G C31U U34A C37G,0.02
24,C18U G19A U32G,0.04

row,Variant,self-cleavage
1,C18A G27U G29C,2.38
2,C18A G36A C37G,0.07
3,C18A G30U C45G,0.53
4,C18A G36U G40C,0.01
5,C18A G29U U32G G33U C37A,0.05
6,C18U U34C A41U,0.19
7,C18G C37A G40U C42A,0.11
8,C18G U20C G30C,1.11
9,C18U G35U G44U,0.13
10,C18U G19A C31A C42G,0.02
11,C18U U28A C42A,0.03
12,C18U G19U G27A,0.64
13,C18U A25C C37U A39G,0.04
14,C18U G19A G21C,0.43
15,C18G G36U C37A U38A,0
16,C18A G27U G29U G36U C42A,0
17,C18G G30C C37U,0.03
18,C18U G21A C42A,0.09
19,G19A A24C G29C,0.56
20,C18U G19A C37G,0.05
21,C18A G33C G40A,0.02
22,C18U C31A G44U,0.05
23,C18A G29C C31A C37G,0.02
24,C18U G21A U32G G40A,0.03

row,Variant,self-cleavage
1,C18U C23A A39G U43A,0.1
2,C18G A26U U43C G44A C45G,0.02
3,C18U A39G G44A,0.23
4,C18G G22C C45U,0.29
5,C18G C42G C45U,0.02
6,C18U U20A G27U G30A,0.69
7,C18U U20C A41G,0.2
8,C18U U20C A41C,0.05
9,C18U G22C G29U G40A,0.19
10,C18U G30C C31U,0.04
11,C18G G30A G33C U34C G40A A41G,0.01
12,C18A G29A U32C C42U C45A C46U,0.02
13,C18U G21A G22U G36U,0.04
14,C18U G27U A39U C46U,1.37
15,C18G G33U C42G,0.06
16,C18A G29A C37A A39G,0.03
17,C18U U43G G44C,0.03
18,C18U G21U G27U,0.72
19,C18G G21A A41C,0.05
20,C18A G29C U32A C45A,0.01
21,C18G G21U C45G,0.09
22,C18U G27U G29U G33C C37G,0.07
23,C18U U28A G29A C31A,0.1
24,C18A G27A G33C,0.05

row,Variant,self-cleavage
1,C18U G21A C45U,0.39
2,C18U U20A A24C G40C C46A,0.13
3,C18U U20A G36U G40U,0.38
4,C18A G22U C23U G29U C46A,1.82
5,C18U C23A G30U U32G G44U,0.05
6,C18U G33C A41G,0.03
7,C18U A24G C45G,0.05
8,C18U G35U C45A,0.04
9,C18G G19A A26U,0.11
10,C18A G30U U34A U43A,0.06
11,C18U C31A A39C,0.05
12,C18G G22U C45G,0.03
13,C18U U32C G36C,0.07
14,C18U G29U G36A G40A,0.07
15,C18G G22A G30C,0.29
16,C18A G30A G35U A41G,0.02
17,C18G G27U C46A,0.34
18,C18U U20A G33C,0
19,C18U G19A G22C A41C,0.03
20,C18U G19U C23U G27U,1.44
21,C18G G29A A41U C45U,0.12
22,C18U C23G G30A,0.16
23,C18U G21A G33A G40U G44U,0.03
24,C18U G29C G33A,0.06

row,Variant,self-cleavage
1,C18U G19C G30U A39G,0.01
2,C18U A25U U38G A39G,0.02
3,C18G A25C C31U G36C,0.05
4,C18U U32A G33C A41G,0.1
5,C18U A25G G30C,0.12
6,C18U G22C G27A G30C,1.16
7,C18A G35A G36A,0.12
8,C18U G22A G35A,0.07
9,C18G A25C G35U U43G C46A,0.02
10,C18A G30A C31U G36C,0.05
11,C18G A26U A39G C42A,0.02
12,C18U G36U G40U A41G,0.14
13,C18A U28C C46A,0.22
14,C18G A25U C31G,0.05
15,C18U C23A U38G,0.01
16,C18U A26G C31G,0.05
17,C18U C31U U32A,0.12
18,C18U G21A G30U C31U G40U,0.01
19,C18G C23U G27C,0.47
20,C18U G22A G29U C46U,0.7
21,C18A U20G A25C,0.17
22,C18A U20C G36U C37A,0.05
23,C18A U43G C45G,0.04
24,C18A U38G A41C G44U C45U C46A,0.01

row,Variant,self-cleavage
1,C18U A25G C46U,0.19
2,C18G U32C G33U G40U,0.02
3,C18A G27C C37A U43A,0
4,C18G C23U U34A,0.04
5,C18U G29C G30A,0.41
6,C18G G30C C45U,0.59
7,C18U A39G A41C C45A,0.01
8,G19A A24U G30U,1.53
9,C18A U28A C37G U43G,0.02
10,C18U C42U G44A C46A,0.17
11,C18G U20G A39G,0.04
12,C18A G29U C37U,0.01
13,C18G C23A A26C,0.38
14,C18U C31G U43A,0.12
15,C18U C23G U34A,0.03
16,C18G G19U G22U G33U,0.15
17,C18A G29U U34C,0.09
18,C18G G19A G21A G35U,0.01
19,C18G G35U C42U,0.05
20,C18G G35C G36C G40C,0.02
21,C18U G19U G22U C23G U34A C46G,0.01
22,C18U G29A C46A,1.13
23,C18A G35C A41G C42G,0.06
